Data: PubChem BioAssay (NCATS)
The shares of active, inactive and inconclusive entries below differ from those in the screen. Potencies beside an inconclusive call are fits to weak or partial responses and may not hold up. Active and inactive are the calls of the source. Calls follow the shape of the dose curve; as a rule, active = well fitted inhibition curve with a large enough effect; inconclusive = small, poorly fitted or top-dose-only effect; inactive = flat fitted curve, though single readings scatter.

The molecules below were run against Ubiquitin carboxyl-terminal hydrolase 1 (Homo sapiens) (UniProt O94782) (assay: Inhibitors of USP1/UAF1: Pilot qHTS (AID 504865;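 also: rhodamine fluorescence freed from ubiquitin-rhodamine substrate followed over time; nearly all actives have a fitted effect of over 35% in size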)). Details: purified USP1/UAF1, Ub-rhodamine cleavage fluorescence; series mostly up to 114 µM.
UniProt O94782, sequence (O94782 whole entry, looked up): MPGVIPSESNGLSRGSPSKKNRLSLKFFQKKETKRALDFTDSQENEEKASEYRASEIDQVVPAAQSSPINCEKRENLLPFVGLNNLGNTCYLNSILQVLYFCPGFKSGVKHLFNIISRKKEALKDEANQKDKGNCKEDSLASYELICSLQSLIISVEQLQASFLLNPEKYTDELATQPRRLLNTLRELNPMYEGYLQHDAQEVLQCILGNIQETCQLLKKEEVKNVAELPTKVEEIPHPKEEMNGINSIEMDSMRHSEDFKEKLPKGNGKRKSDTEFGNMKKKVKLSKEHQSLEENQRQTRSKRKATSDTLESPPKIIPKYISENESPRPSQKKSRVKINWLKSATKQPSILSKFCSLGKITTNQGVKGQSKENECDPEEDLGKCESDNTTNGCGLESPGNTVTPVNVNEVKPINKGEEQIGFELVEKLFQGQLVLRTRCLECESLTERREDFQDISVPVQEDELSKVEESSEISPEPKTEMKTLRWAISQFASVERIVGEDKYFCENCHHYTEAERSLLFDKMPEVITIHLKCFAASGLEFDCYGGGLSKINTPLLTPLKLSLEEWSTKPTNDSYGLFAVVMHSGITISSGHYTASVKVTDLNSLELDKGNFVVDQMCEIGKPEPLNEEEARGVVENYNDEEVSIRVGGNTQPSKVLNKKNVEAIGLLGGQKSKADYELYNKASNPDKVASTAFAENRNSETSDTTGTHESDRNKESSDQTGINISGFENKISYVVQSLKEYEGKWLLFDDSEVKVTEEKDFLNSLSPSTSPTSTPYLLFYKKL
Procedure, shortened: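 1nM USP1/UAF1 + cpd, 15 min RT; start w/ Ub-Rho 150nM final; kinetic FL 480/540 nm, 6 reads q60 s. Buffer 50mM HEPES pH 7.8, 0.5mM EDTA, 1mM TCEP, 0.01% Tween-20, 0.1 mg/ml BSA.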
Potency is read from the fitted curve at half-maximal effect; tags tell the direction and shape of the fitted curve.

Potency, inactive:
Cc1cc(O)c(C=O)c(O)c1C(=O)O, CC(C)=CC1C(C(=O)O)C1(C)C (stereo unspecified), COc1ccc(-c2oc3ccccc3c(=O)c2O)cc1, CC(=O)OC1CC2C(C)(C)C(O)C=C[C@@]2(C)C2CC[C@@]3(C)C(c4ccoc4)OC(=O)C4OC43[C@]12C (stereo partly specified), Nc1nc2[nH]c(=O)[nH]c2c(=O)[nH]1, C1CCN2C[C@H]3C[C@H](CN4CCCCC34)C2C1 (stereo partly specified)

Potency, inconclusive:
CC(C)c1c(O)ccc2c1CCC1[C@@](C)(C=O)CCC[C@@]21C (stereo partly specified) 44.7 µM [inhibitor, partial curve], O=C(/C=C/c1ccc(OCc2ccccc2)cc1)c1cccs1 39.8 µM [inhibitor, partial curve], C=CCCCCCCCCCCCC(O)CC(O)COC(C)=O (stereo unspecified) 31.6 µM [inhibitor, full curve], CC(=O)OC1CC2C(C)(C)C(=O)C3OC3[C@]2(C)C2CC[C@@]3(C)C(c4ccoc4)OC(=O)C4OC43[C@]12C (stereo partly specified) 56.2 µM [inhibitor, partial curve, poor fit], Cc1cc(O)c2c(c1O)C(=O)c1c(O)cc(C)c(O)c1C2=O 79.4 µM [inhibitor, partial curve], CCCCCc1c2c(cc(O)c1C(=O)O)OC(=O)c1c(cc(OC)cc1C(=O)CCCC)O2 89.1 µM [inhibitor, partial curve], COC(=O)[C@]1(C)CCC[C@]2(C)c3ccc(C(C)C)cc3C(=O)CC12 (stereo partly specified) 50.1 µM [inhibitor, partial curve, poor fit], CC(=O)Oc1cc2c(c(C)c1OC(C)=O)CC=C1[C@]3(C)CC[C@]4(C)CC[C@@](C)(C(=O)O)CC4[C@]3(C)CC[C@]12C (stereo partly specified) 50.1 µM [inhibitor, partial curve, poor fit], CC(=O)OC1CC2C(C)(C)C(=O)C=C[C@]2(C)C2CC[C@@]3(C)C(c4ccoc4)OC(=O)C4O[C@@]43[C@]12C (stereo partly specified) 39.8 µM [inhibitor, full curve], COc1cc(O)c(C(C)=O)c(OC)c1 1.12 µM [inhibitor, partial curve, poor fit], COc1ccc(C(C)C(=O)c2ccc(O)cc2O)cc1 (stereo unspecified) 56.2 µM [inhibitor, partial curve, poor fit], C#C[C@@]1(O)CCC2C3CCc4cc(O)ccc4C3CC[C@@]21C (stereo partly specified) 56.2 µM [inhibitor, partial curve, poor fit], CC(C)=CCc1c2c(c(O)c3c(=O)c(O)c(-c4ccccc4)oc13)C=CC(C)(C)O2 56.2 µM [inhibitor, partial curve, poor fit], COC(=O)CC1C2(C)CC34OC5(C)O[C@@]6(C7/C(=C(/O)C(C)C)C(=O)OC(c8ccoc8)[C@]7(C)C(OC(C)=O)C(OC(C)=O)[C@]6(O5)[C@@]13C)C(OC(C)=O)[C@]4(O)C2OC(=O)C(C)C (stereo partly specified) 56.2 µM [inhibitor, partial curve, poor fit], CC(CCC(=O)O)C1CCC2C3CC[C@H]4CC(O)CC[C@@]4(C)C3C=C[C@]12C (stereo partly specified) 63.1 µM [inhibitor, partial curve, poor fit], CCC(=O)OC1C2CC3=C4CC(=O)OC(c5ccoc5)[C@]4(C)CCC3[C@@](C)(C2=O)C(CC(=O)OC)C1(C)C (stereo partly specified) 25.1 µM [inhibitor, full curve, poor fit], COc1cc(O)c(C(=O)c2ccccc2)cc1O 79.4 µM [inhibitor, partial curve], CC(=O)OC1CC2C(C)(C)C(O)CCC2(C)C2CC[C@]3(C)C(=CC(=O)OC3c3ccoc3)C12C (stereo partly specified) 56.2 µM [inhibitor, partial curve, poor fit], COc1ccc(-c2cc(=O)c3c(O)c(OC)c(O[C@@H]4OC(COC5OC(C)C(O)C(O)[C@@H]5O)C(O)C(O)C4O)cc3o2)cc1 (stereo partly specified) 44.7 µM [inhibitor, partial curve, poor fit], COc1ccccc1-c1cc(=O)c2cccc(OC)c2o1 44.7 µM [inhibitor, partial curve, poor fit]
